# Test results taken from a collection of fitness landscapes (doi:10.1126/science.1257360).
# This is one part of the list.
# B1: PhoQ; a variant is named by its letters at X, in order, P23837 (parent)
# chain: MKKLLRLFFPLSLRVRFLLATAAVVLVLSLAYGMVALIGYSVSFDKTTFRLLRGESNLFYTLAKWENNKLHVELPENIDKQSPTMTLIYDENGQLLWAQRDVPWLMKMIQPDWLKSNGFHEIEADVNDTSLLLSGDHSIQQQLQEVREDDDDAEMTHSVAVNVYPATSRMPKLTIVVVDTIPVELKSSYMVWSWFIYVLSANLLLVIPLLWVAAWWSLRPIEALAKEVRELEEHNRELLNPATTRELTSLVRNLNRLLKSERERYDKYRTTLTDLTHSLKTPLXXLQXXLRSLRSEKMSVSDAEPVMLEQISRISQQIGYYLHRASMRGGTLLSRELHPVAPLLDNLTSALNKVYQRKGVNISLDISPEISFVGEQNDFVEVMGNVLDNACKYCLEFVEISARQTDEHLYIVVEDDGPGIPLSKREVIFDRGQRVDTLRPGQGVGLAVAREITEQYEGKIVAGESMLGGARMEVIFGRQHSAPKDE
# Variants of: B1
# Assay: enrichment ratio after two sorts for PhoP signalling (ratio (wild type AVST 3.29)); higher = more functional
# Details: with PhoP (E. coli)
row,Variant,enrichment ratio
1,HTRD,≤ 0.25
2,VGRA,≤ 0.25
3,PVAI,≤ 0.25
4,GGRE,≤ 0.25
5,YVVD,≤ 0.25
6,LKGT,≤ 0.25
7,GQVN,4.06
8,HNAY,≤ 0.25
9,SYPN,0.366
10,FYGA,≤ 0.25
11,PDVT,≤ 0.25
12,VPFF,≤ 0.25
13,VMCK,≤ 0.25
14,WYVL,≤ 0.25
15,TQFS,5.41
16,DVEK,≤ 0.25
17,SVKP,≤ 0.25
18,PFDD,≤ 0.25
19,NELK,≤ 0.25
20,MHFQ,≤ 0.25
21,HGSG,≤ 0.25
22,INRI,≤ 0.25
23,HRCK,≤ 0.25
24,ELEY,≤ 0.25
25,NWSV,≤ 0.25

row,Variant,enrichment ratio
1,TRFT,≤ 0.25
2,NAGS,≤ 0.25
3,VAWQ,4
4,FRYI,≤ 0.25
5,ETNF,≤ 0.25
6,PLMG,≤ 0.25
7,SMME,14.6
8,YEYM,≤ 0.25
9,SVFL,≤ 0.25
10,ANVC,10.9
11,SAAQ,≤ 0.25
12,SREF,≤ 0.25
13,PSGQ,≤ 0.25
14,EAEV,≤ 0.25
15,QSCQ,≤ 0.25
16,FHLS,≤ 0.25
17,MMMA,≤ 0.25
18,PCYF,≤ 0.25
19,PCKR,≤ 0.25
20,MQDM,≤ 0.25
21,HTYA,≤ 0.25
22,WAVL,≤ 0.25
23,TCTV,12.6
24,VGPT,≤ 0.25
25,AQYI,≤ 0.25

row,Variant,enrichment ratio
1,DTGY,≤ 0.25
2,FNTG,≤ 0.25
3,GEGN,≤ 0.25
4,VTPC,≤ 0.25
5,PDGT,≤ 0.25
6,ESLY,≤ 0.25
7,NWMR,≤ 0.25
8,YWDN,≤ 0.25
9,YHRQ,≤ 0.25
10,QFLE,≤ 0.25
11,FKLL,4.97
12,EFCD,≤ 0.25
13,ATYW,≤ 0.25
14,LMVQ,≤ 0.25
15,MQYG,4.8
16,DEAF,≤ 0.25
17,PYTG,≤ 0.25
18,MICH,2.87
19,ARLV,3.4
20,PQHE,≤ 0.25
21,IMSF,≤ 0.25
22,NEQM,≤ 0.25
23,SCCG,14.3
24,RIEP,≤ 0.25
25,KSFA,≤ 0.25

row,Variant,enrichment ratio
1,ENVN,≤ 0.25
2,WRSE,≤ 0.25
3,VIIC,≤ 0.25
4,WPVQ,≤ 0.25
5,SNTK,≤ 0.25
6,IQNL,≤ 0.25
7,DGND,≤ 0.25
8,YESD,≤ 0.25
9,DAMK,≤ 0.25
10,PSRQ,≤ 0.25
11,WEDI,≤ 0.25
12,YGYK,≤ 0.25
13,NSCV,≤ 0.25
14,TPNP,≤ 0.25
15,FSAN,≤ 0.25
16,RARV,0.363
17,EFNA,≤ 0.25
18,IMEG,≤ 0.25
19,EVFT,≤ 0.25
20,TGWK,≤ 0.25
21,YWMA,≤ 0.25
22,QDDK,≤ 0.25
23,GQKV,≤ 0.25
24,KQPG,≤ 0.25
25,NYTP,≤ 0.25

row,Variant,enrichment ratio
1,EWSS,≤ 0.25
2,AEPL,≤ 0.25
3,VNAF,≤ 0.25
4,FECC,22.6
5,YWMW,≤ 0.25
6,QFPK,≤ 0.25
7,FEEG,≤ 0.25
8,PHIM,≤ 0.25
9,IMDT,≤ 0.25
10,YEAM,2.47
11,EWSF,≤ 0.25
12,FVEH,≤ 0.25
13,TKYC,≤ 0.25
14,ESNF,≤ 0.25
15,GGWV,≤ 0.25
16,TAEH,3.11
17,RGAH,≤ 0.25
18,TVAH,3.22
19,FWTD,≤ 0.25
20,MKNY,≤ 0.25
21,HCNK,≤ 0.25
22,YIKI,≤ 0.25
23,TMGQ,5.04
24,MFQT,≤ 0.25
25,WMYV,≤ 0.25

row,Variant,enrichment ratio
1,QMMY,≤ 0.25
2,MPCL,≤ 0.25
3,QKWY,≤ 0.25
4,NFEV,≤ 0.25
5,SFGH,≤ 0.25
6,MMTC,≤ 0.25
7,FNCN,≤ 0.25
8,LSDE,≤ 0.25
9,AWAF,≤ 0.25
10,TWWW,≤ 0.25
11,YKHC,≤ 0.25
12,AMLF,6.39
13,PEYL,≤ 0.25
14,PSWI,≤ 0.25
15,SRMI,2.61
16,HTYT,≤ 0.25
17,KSVH,≤ 0.25
18,RGKM,≤ 0.25
19,WTFS,≤ 0.25
20,MRGW,≤ 0.25
21,ARFP,≤ 0.25
22,GDLP,≤ 0.25
23,QAAK,≤ 0.25
24,KTIH,≤ 0.25
25,DHWV,≤ 0.25

row,Variant,enrichment ratio
1,ISFP,≤ 0.25
2,DPSP,≤ 0.25
3,IQLV,≤ 0.25
4,TWGW,≤ 0.25
5,KDNL,≤ 0.25
6,RIKY,≤ 0.25
7,VLGT,≤ 0.25
8,HVLL,≤ 0.25
9,MDVM,8.67
10,NDTE,≤ 0.25
11,QIAR,≤ 0.25
12,RAMT,≤ 0.25
13,LMKI,≤ 0.25
14,DHMW,≤ 0.25
15,VMTP,≤ 0.25
16,FTHK,≤ 0.25
17,AHPV,≤ 0.25
18,FHAS,≤ 0.25
19,VMSR,≤ 0.25
20,HKPW,≤ 0.25
21,HQYG,≤ 0.25
22,GRSL,≤ 0.25
23,NCVV,≤ 0.25
24,MSIY,≤ 0.25
25,KNCN,≤ 0.25

row,Variant,enrichment ratio
1,IPHA,≤ 0.25
2,LSIT,≤ 0.25
3,DFGV,≤ 0.25
4,HDAI,≤ 0.25
5,NAYF,≤ 0.25
6,SSQE,7.49
7,RRKH,≤ 0.25
8,SEMQ,8.89
9,AQTA,≤ 0.25
10,WFMC,≤ 0.25
11,LELA,≤ 0.25
12,AQQW,≤ 0.25
13,PPHP,≤ 0.25
14,GRVV,≤ 0.25
15,NNFN,≤ 0.25
16,VYDD,≤ 0.25
17,QSKN,≤ 0.25
18,TAGD,9.3
19,TIPF,≤ 0.25
20,HNTM,≤ 0.25
